# Test results as given in the supplement of paper PMC11417369.
# This is one part of the list.
# Test system: PF3D7_0420300 AP2 domain 1 (GST-tagged)
# Assay: gcPBM binding intensity (ln(normalized median fluorescence intensity)); higher = stronger DNA binding
# Summary of the method: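 The highest Masliner-normalised natural-log median intensity across replicate spots of either probe orientation is reported as binding intensity. GST-tagged P. falciparum DNA-binding domains expressed in E. coli were applied for 1 h to an Agilent 4 × 180k array of primer-extended double-stranded 36-bp intergenic genomic probes plus negative controls, and bound protein was detected with Alexa488 anti-GST antibody and scanned at 488 nm.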
row,Sequence,gcPBM binding intensity (ln)
1,CAAAAACATACCTACACACACAATATGTATATATAA [CACACA_site3514],9.93
2,TGATAACCAAAAAGGGGTACATACACAAAAAAATAC [XGTACX_site1254],9.72
3,AACAACATTTGATAAACACACAGAAGTATAAATATA [CACACA_site5327],9.61
4,TACTTATTAGACTATTGTACATACATTATTAATATT [XGTACX_site7849],9.32
5,TAAAAAATTAAGCAACGTACAAATGAAAAGTATAAT [XGTACX_site1058],9.78
6,TTATGAAAATATTTTTTTCGTTTGATGTATATGTTT [CACACA_negctrl_site1556],9.25
7,AAAAAATATAAATATGTAAAAAGAGAAAAAAAAAAG [GTGCAC_negctrl_site9],9.47
8,ATATTTAATTCATCATGTACACAAATAAGAAACAAA [XGTACX_site8076],9.32
9,TATAAACATAAAACCAGTACATATATATTTTTCTTC [XGTACX_site212],9.39
10,TGAAAATGGGAACCGTGTACAGGGCAGTTATAGGGG [XGTACX_site2950],9.62
11,AAAATATAGTAACACATACACACATATATATTTATA [CACACA_site2504],9.79
12,AAATTGAAATATTCCTGTACACATTTTGAAAACTTA [XGTACX_site6101],9.18
13,TTGTTATGTTTTATTTGTACGTAGGTTTCTATCAAA [XGTACX_site7636],9.41
14,TATTAAACTAAATGTAGTACATACACAAAAGAAACC [XGTACX_site606],9.75
15,TGTTTGAATATAATCACACATTTATATAAAAAGTTA [CACACA_site5237],9.04
16,TCTTTTTGCATGTGTGTGCGCACAAAATACACAAAA [GTGCAC_site9718],9.42
17,ATATATTTAAAAAAATGTACAAATCATAAATGCAAG [XGTACX_site4230],9.29
18,TATAATGTTGATGATAGTACGTATGAGTTCAAAAAA [XGTACX_site3651],9.14
19,AAAAAATTATACCAGTGTACTTTTTTGGTTTTTCTT [XGTACX_site2601],9.47
20,AGAAATTAAATGTAAGCACACATAAATTATACACAT [CACACA_site9098],9.64
21,AAAAGAATTAATTTATGTACTAATTTCAAGAAATAA [XGTACX_site3241],8.98
22,ATATATTATCAACTTACACACAGAAAACTATAATAA [CACACA_site6275],9.71

row,Sequence,gcPBM binding intensity (ln)
1,CTTTTTCCTTTATAAAGTACTTAAAATATTTAGATA [XGTACX_site4259],9
2,TCCTTACACACACTTTTTTTTTTTTTTTTTTCTACA [GTGCAC_negctrl_site263],9.85
3,CTCGATCAAGTGTATGCATGTACCAGTGAACAAAAA [TGCATGCA_site635],9.24
4,GATTCGATCTATATATGTACACATAAATATTTTTTG [XGTACX_site7015],9.3
5,TATATATATATATATATATATATATATGTGTATGTA [TGCATGCA_negctrl_site255],9.55
6,TATATATTTATTTATTGTACACTCTTTAAGAATACA [XGTACX_site2569],9.01
7,AATAAAATTGACCATTCACACAAGAAAAATTAATCA [CACACA_site5636],9.29
8,ATACACAAGAATATGTTGCACTTTTATATTCGTATG,9.33
9,AATATTTATATTAACTGTACAGAAAATATCTTTGCT [XGTACX_site8130],9.04
10,CATAAGATTTTTACATGTACATATTTATAATATATT [XGTACX_site6578],9.36
11,TTCTTTTTTTTTTTTTCATGTATATTAAACTTTTCA [TGCATGCA_negctrl_site592],9.41
12,GATATATAAATTGACACACACATATATACCTATATA [CACACA_site6689],9.83
13,AATATAAAAATGTTTACACACACACCGAAATATATT [CACACA_site8800],10.1
14,TATGCCATGGCATAATGTACATAAGTGACCTCATAA [XGTACX_site1294],9.06
15,TGTATTAAAAATTTGGTGCAACTTTTACATAATAAT,9.11
16,TTTTTTTTTTTTTTTTGTACGAATAAACAAGTTATT [XGTACX_site5473],8.64
17,ATATATATATATATATGTACATATTTTATTTAATTT [XGTACX_site1807],9.05
18,AAAAAAAAAAATAAATGTACAAAATAATGGGGAACA [XGTACX_site8723],9.84
19,GTGAATGATTTAAGTACACACCGGTATTTATTCAAA [CACACA_site4950],9.26
20,AAAAAAAAAAAATACACACACACATATTTATTTATA [CACACA_site6483],10.1
21,AAGAAAAAAAAAAAAAATATATATATAAGAACATAT [TGCATGCA_negctrl_site131],9.33
22,GATAAAACGTTATGCACACGTACGTGGGTATTTATA [CACACA_site4954],9.29
